Substitutions are numbered along the chain they refer to. Names may count otherwise. These are yes or no findings as the source states them, for the method shown. In cells and extracts the contact can be indirect. Some results given as binding are weak or reduced against the parent protein; the word gives no strength. For some assays here: Tags and fused reporters may be left off the sequences shown.

Amino acid sequences for entries named in this document (tags omitted).
UniProt O95136: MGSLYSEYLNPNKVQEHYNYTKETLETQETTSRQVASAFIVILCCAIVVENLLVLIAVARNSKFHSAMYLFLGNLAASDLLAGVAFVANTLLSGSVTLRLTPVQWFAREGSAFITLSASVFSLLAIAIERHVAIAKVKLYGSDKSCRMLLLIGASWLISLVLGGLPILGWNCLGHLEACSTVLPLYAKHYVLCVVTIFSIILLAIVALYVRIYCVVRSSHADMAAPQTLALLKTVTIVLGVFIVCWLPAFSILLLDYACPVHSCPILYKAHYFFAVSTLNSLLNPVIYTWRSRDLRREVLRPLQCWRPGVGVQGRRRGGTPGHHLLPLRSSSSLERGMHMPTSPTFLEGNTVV
UniProt Q99500: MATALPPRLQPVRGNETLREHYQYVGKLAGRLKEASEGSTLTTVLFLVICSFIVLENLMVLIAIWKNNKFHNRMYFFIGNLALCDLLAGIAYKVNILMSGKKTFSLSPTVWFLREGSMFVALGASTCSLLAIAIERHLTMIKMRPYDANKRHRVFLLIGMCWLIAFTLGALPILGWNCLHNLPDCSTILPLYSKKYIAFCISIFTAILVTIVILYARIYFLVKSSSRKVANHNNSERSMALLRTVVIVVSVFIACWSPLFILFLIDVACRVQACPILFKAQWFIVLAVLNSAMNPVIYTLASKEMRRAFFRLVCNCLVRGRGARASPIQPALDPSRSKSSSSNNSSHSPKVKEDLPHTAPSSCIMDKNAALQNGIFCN
UniProt P50148: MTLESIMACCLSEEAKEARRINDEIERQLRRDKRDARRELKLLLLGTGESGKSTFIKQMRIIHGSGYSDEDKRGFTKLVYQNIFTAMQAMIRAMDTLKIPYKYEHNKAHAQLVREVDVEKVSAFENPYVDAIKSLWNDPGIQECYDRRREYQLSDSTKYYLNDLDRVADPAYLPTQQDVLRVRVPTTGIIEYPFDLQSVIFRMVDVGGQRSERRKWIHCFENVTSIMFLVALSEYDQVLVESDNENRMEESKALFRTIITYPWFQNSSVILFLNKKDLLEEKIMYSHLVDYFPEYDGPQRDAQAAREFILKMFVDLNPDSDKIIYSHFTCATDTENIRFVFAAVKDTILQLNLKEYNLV

Experiment [1] addresses S1P2-Luc (UniProt O95136). The experiment is described as follows: FRET or BRET; live HCT116 cells; S1P2-Luc or S1P3-Luc donor (0.03 ug) with Gα-YFP acceptor (2.0 ug), no RGS2 co-expressed; with or without agonist. (In general: In BRET a luciferase serves as donor, and the signal depends on an acceptor being close.)
For experiment [2], the target named is S1P3-Luc (UniProt Q99500). Described as above.
For experiment [3], the target named is S1P2-Luc (UniProt O95136). The experiment is described as follows: FRET or BRET; live HCT116 cells; S1P2-Luc or S1P3-Luc donor (0.03 ug) with Gα-YFP acceptor (2.0 ug) and untagged RGS2 (0.5 ug) co-expressed; with or without agonist.
For experiment [4], the target named is S1P3-Luc (UniProt Q99500). The experiment is described as above.
The next experiment addresses T1, RGS2-Luc (UniProt P41220).
T1 sequence: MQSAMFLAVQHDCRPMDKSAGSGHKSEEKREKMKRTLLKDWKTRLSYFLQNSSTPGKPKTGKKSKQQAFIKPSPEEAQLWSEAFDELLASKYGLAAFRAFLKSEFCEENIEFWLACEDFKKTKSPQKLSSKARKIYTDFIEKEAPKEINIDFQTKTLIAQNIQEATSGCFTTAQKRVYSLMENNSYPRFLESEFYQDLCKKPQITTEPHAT
The experiment is described as follows: FRET or BRET; competition: live 293T cells with RGS2-Luc and S1P2-Venus or S1P3-Venus, along with untagged S1P2 or S1P3.

In experiment [5] the target is S1P2-Luc (UniProt O95136). The experiment is described as follows: FRET or BRET; live HCT116 cells; S1P2-Luc or S1P3-Luc donor (0.03 ug) with RGS1-Venus or RGS2-Venus acceptor (2.0 ug); also with Gα isoforms co-expressed and with or without agonist.
Experiment [6] deals with S1P3-Luc (UniProt Q99500). The experiment is described as above.
The target of experiment [7] is S1P2-Luc (UniProt O95136). Briefly: FRET or BRET; live 293T cells; S1P2-Luc or S1P3-Luc donor (0.03 ug plasmid) with RGS-Venus acceptor (0-2.0 ug); also with Gα^EE isoforms co-expressed and with or without agonist (CYM5520, CYM5541); net BRET, coelenterazine H 5 uM, Tyrode's solution pH 7.4.
In experiment [8] the target is S1P3-Luc (UniProt Q99500). The description is as above.
Experiment [9] addresses S1P2 (endogenous, HCT116) (human (endogenous in HCT116)) (UniProt O95136). The experiment is described as follows: co-IP; untransfected HCT116 cells, with or without agonist; lysis in PBS with 1% Triton X-100; immunoprecipitation with antibodies against S1P2 or S1P3, blot with anti-RGS1 and anti-RGS2.
For experiment [10], the target named is S1P3 (endogenous, HCT116) (human (endogenous in HCT116)) (UniProt Q99500). Described as above.
The target of experiment [11] is S1P2-Venus (UniProt O95136). Briefly: co-IP; 293T cells cotransfected with RGS1-Luc or RGS2-Luc and S1P2-Venus or S1P3-Venus; lysis in PBS with 1% Triton X-100; immunoprecipitation with anti-GFP, blot with Renilla luciferase antibodies.
Experiment [12] concerns the target S1P3-Venus (UniProt Q99500). The description is as above.
Experiment [13] has as its target S1P2-Venus (UniProt O95136). The experiment is described as follows: FRET or BRET; live 293T cells; RGS-Luc donor (0.03 ug plasmid) with S1P2-Venus or S1P3-Venus acceptor (0-2.0 ug), or Lyn-YFP as acceptor (also with untagged S1P2 or S1P3 co-expressed, with or without receptor stimulation); net BRET, coelenterazine H 5 uM, Tyrode's solution pH 7.4.
Experiment [14] concerns the target S1P3-Venus (UniProt Q99500). Described as above.
The target in experiment [15] is S1P2-Venus (UniProt O95136). Briefly: FRET or BRET; competition: live 293T cells with RGS2-Luc and S1P2-Venus or S1P3-Venus, along with untagged S1P2 or S1P3.
In experiment [16] the target is S1P3-Venus (UniProt Q99500). The experiment is described as above.

As to Gαq-YFP (from UniProt P50148 1-359), the binding result with S1P2-Luc [1], with S1P3-Luc [2], in the experiment with S1P2-Luc [3] and with S1P3-Luc [4] was “binds” throughout.
Take “untagged S1P2 (from UniProt O95136 1-353) (receptor)”: in the experiment with RGS2-Luc, the binding result was “binds”.

B1: RGS1-Venus (protein, UniProt Q08116 1-209)
chain: MRAAAISTPKLDKMPGMFFSANPKELKGTTHSLLDDKMQKRRPKTFGMDMKAYLRSMIPHLESGMKSSKSKDVLSAAEVMQWSQSLEKLLANQTGQNVFGSFLKSEFSEENIEFWLACEDYKKTESDLLPCKAEEIYKAFVHSDAAKQINIDFRTRESTAKKIKAPTPTCFDEAQKVIYTLMEKDSYPRFLKSDIYLNLLNDLQANSLK
On to B1, for which the binding result in the experiment with S1P2-Luc [5], with S1P3-Luc [6], in the experiment with S1P2-Luc [7] and in the experiment with S1P3-Luc [8] was “no binding” throughout.

B2: RGS1 (endogenous, HCT116) (protein, UniProt Q08116 1-209)
chain: B1 chain
On to B2, for which the binding result in experiment [9] and in experiment [10] was “no binding” in each case.

B3: RGS1-Luc (protein, UniProt Q08116 1-209)
chain: B1 chain
As for B3, the binding result with S1P2-Venus [11], with S1P3-Venus [12], with S1P2-Venus [13] and with S1P3-Venus [14] was “no binding” throughout.

B4: RGS2-Venus (protein, UniProt P41220 1-211)
chain: T1 sequence
Take B4: the binding result with S1P2-Luc [5], with S1P3-Luc [6], in the experiment with S1P2-Luc [7] and in the experiment with S1P3-Luc [8] was “binds” throughout.

B5: RGS2^S179D (protein, UniProt P41220 1-211)
chain: T1 sequence with S179D
As for B5, the binding entry with S1P2-Luc [7] and with S1P3-Luc [8] was “binds” each time.

B6: RGS2 (endogenous, HCT116) (protein, UniProt P41220 1-211)
chain: T1 sequence
With B6, the binding result in experiment [9] and in [10] was “binds” in each case.

B7: RGS2-Luc (protein, UniProt P41220 1-211)
chain: T1 sequence
With B7, the binding entry with S1P2-Venus [15], with S1P3-Venus [16], in the experiment with S1P2-Venus [11], with S1P3-Venus [12], with S1P2-Venus [13] and with S1P3-Venus [14] was “binds” throughout.

For the origin of these results see publication PMC12405630.
